# Source: paper PMC6919601, “Identification of Plasmodium dipeptidyl aminopeptidase allosteric inhibitors by high throughput screening” (PLoS ONE, 2019)
# Where “and” joins values, the source holds several entries; their conditions need not be identical. Equal values may be shown once. About 230 (0.21%) of roughly 110,000 compounds showed an effect of 50% or more. The list shows a part of the results.
# Molecular target: DPAP1 (Plasmodium falciparum, UniProt Q8IIJ9)
# Assay: primary screen, percent inhibition; read by cleavage of a fluorogenic dipeptide substrate; higher = more effect of the substance
# Parameters: species or system P. falciparum D10 trophozoite lysates; single well
# 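Also: 30 min substrate incubation versus DMSO and 10 µM JCP410 controls.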
# DPAP1, sequence (Q8IIJ9 whole entry, looked up): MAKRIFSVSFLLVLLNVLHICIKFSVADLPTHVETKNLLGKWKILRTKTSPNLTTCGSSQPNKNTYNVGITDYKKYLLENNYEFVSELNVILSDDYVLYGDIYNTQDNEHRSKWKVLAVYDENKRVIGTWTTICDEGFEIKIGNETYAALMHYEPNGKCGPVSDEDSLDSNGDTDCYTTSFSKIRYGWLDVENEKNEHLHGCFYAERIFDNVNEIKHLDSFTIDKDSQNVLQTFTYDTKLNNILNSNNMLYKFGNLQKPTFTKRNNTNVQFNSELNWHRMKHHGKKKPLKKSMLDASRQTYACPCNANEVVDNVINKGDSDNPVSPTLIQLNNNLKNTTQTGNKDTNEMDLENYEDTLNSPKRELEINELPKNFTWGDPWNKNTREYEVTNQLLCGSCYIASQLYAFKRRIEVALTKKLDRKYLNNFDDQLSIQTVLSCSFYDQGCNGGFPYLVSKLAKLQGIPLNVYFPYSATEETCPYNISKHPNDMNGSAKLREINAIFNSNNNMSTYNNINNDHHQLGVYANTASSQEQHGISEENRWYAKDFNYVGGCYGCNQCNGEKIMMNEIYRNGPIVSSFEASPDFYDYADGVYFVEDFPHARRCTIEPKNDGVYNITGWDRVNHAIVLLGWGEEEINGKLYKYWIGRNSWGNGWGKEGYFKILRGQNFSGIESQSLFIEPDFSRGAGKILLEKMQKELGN
row,Structure (SMILES),% Inhibition @ 10 uM
1,O=C(CCn1cnnn1)Nc1ccc(Cl)cn1,-1.96%
2,N=C1SCCN1CC(O)c1ccccc1 (stereo not shown),-11.1%
3,CCn1c(C(=O)N2CCC(C(=O)NCc3ccc(F)cc3)CC2)cc2sccc21,0.137%
4,CC(CCCC(C)(C)O)NC1C2CC3CC(C2)CC1C3 (stereo not shown),-1.82%
5,Cc1nc2c(C(=O)NCCC3=CCCCC3)cnn2c(C)c1Cc1ccccc1,1.27%
6,Nc1nonc1-c1noc(CCCCCN2C(=O)c3ccccc3C2=O)n1,-0.941%
7,CCOc1ccccc1C(=O)Nc1c2c(nn1-c1ccccc1C)CS(=O)(=O)C2,10.9%
8,COc1ccc(/N=C2/S/C(=C\c3ccc4c(c3)OCO4)C(=O)N2C)cc1,3.26%
9,Cc1onc(-c2ccccc2Cl)c1C(=O)NCc1ccc(S(N)(=O)=O)cc1,-5.71%
10,CC(C)Nc1nc2ccccc2c(=O)n1-c1ccc(Cl)cc1,-1.6%
11,Cc1ccc2c(c1)c1c(n2CC(O)CN2C(=O)CNC2=O)C(=O)CCC1 (stereo not shown),-2.78%
12,CN1C(=O)C(=Cc2ccc(-c3ccc(O)c(C(=O)O)c3)o2)C(=O)N(C)C1=O,30.2%
13,CCCC[n+]1cc(NC(=O)c2ccccc2Br)on1,1.62%
14,Cc1ccc(-c2nnc(SCC(=O)N3CCOCC3)o2)cc1,2.42%
15,CCOC(=O)N1CCC(Nc2nc(OC)nc(OC)n2)CC1,3.63%
16,CC(C)(C)c1c(Cl)c(O)c(-c2ccccc2)c(=O)n1-c1ccccc1,7.84%
17,COC(=O)c1c(N)n(-c2cccc(C(F)(F)F)c2)c2nc3ccccc3nc12,-3.41%
18,CC(C)CC(NC(=O)c1ccc(NC(=O)N2CCOCC2)cc1)C(=O)NCC#N (stereo not shown),9%
19,Cc1ccccc1C(=O)N[C@@H](CC(C)C)C(=O)NCC#N,-6.46%
20,CC1CC(N(C(=O)c2cccc(F)c2)c2ccccc2)c2ccccc2N1 (stereo not shown),-2%
21,CCOc1ccccc1N(CC(=O)Nc1cc(C)cc(C)c1)S(C)(=O)=O,4.11% and 4.44%
22,COC(=O)C1CC2=CC(=O)CCC2(C)C2C1C1CC[C@@]3(CCC(=O)O3)C1(C)C[C@H]2O (stereo partly shown),3.53%
23,CCC1CCCCN1CCCNC(=O)Cn1ncc2c3cc(C)ccc3nc-2c1O (stereo not shown),2.42%
24,O=C(COc1ccccc1)NCCc1ccccc1,5.09%
25,CCCOc1ccc(N2CC(C(=O)Nc3nccs3)CC2=O)cc1 (stereo not shown),-3.65%

row,Structure (SMILES),% Inhibition @ 10 uM
1,CCOC(=O)C1=C(CNCC23CC4CC(CC(C4)C2)C3)NC(=O)NC1c1ccc2c(c1)OCO2 (stereo not shown),-2.63%
2,Cc1nn(CC(=O)N2CCN(c3ccccn3)CC2)c(=O)c2cc3sccc3n12,7.91%
3,CC1CC(C)CC(S(=O)(=O)N2CCC(C(=O)O)CC2)C1 (stereo not shown),-0.256%
4,Cc1nnc(C)c2c(C)n(C(c3ccccc3)c3ccccc3)c(C)c12,3.54%
5,COc1ccc(OC)c(C2NC(=O)N(C)C(C)=C2C(=O)OCc2ccccc2)c1 (stereo not shown),6.11%
6,COCCCN(C(=O)Nc1cccc(Cl)c1)C(C)c1ccccn1 (stereo not shown),5.24%
7,Cn1c(=O)c2c(nc(Br)n2Cc2ccccc2Cl)n(C)c1=O,5.09%
8,O=C(NC1CC1)c1cc(-c2ccc(Cl)cc2)nc2ccccc12,-0.69%
9,COc1ccc(-c2cc(C(=O)NC3CCCC3)no2)cc1OC,8.5%
10,COC(=O)C1=C(C)N(CC2CCCO2)C(=O)/C1=C\c1cc(C)n(-c2cc(C)cc(C)c2)c1C (stereo not shown),-3.86%
11,Cc1cc(C)c2c(n1)SCC(=O)N2Cc1ccc(C(=O)NCc2ccc(Cl)cc2)cc1,-4.78%
12,CCCNC(=O)Cn1ncc2c(C)n(Cc3ccc(C)cc3)c(C)c2c1=O,-2.17%
13,Cc1ccc(NC(=O)Cn2cnc3c2c(=O)n(C)c(=O)n3C)nc1,-1.36%
14,CCCc1cc(O)n2nc(NC(=O)c3cc(OC)c(OC)c(OC)c3)nc2n1,-3.08%
15,CCN1CC2=C(OC(N)=C(C#N)C2c2cccs2)/C(=C\c2cccs2)C1 (stereo not shown),5.23%
16,c1nc(N2CCCCC2)c2c3c(sc2n1)CCCC3,2.6%
17,COC(=O)C1=C(C)NC(=O)/C1=C\c1ccc2c(c1)OCCO2,3.32%
18,CCOc1cc(CN2CCN(CC)CC2)ccc1OC,-1.86%
19,N#C/C(=C\c1ccccc1F)c1nc(-c2cccs2)cs1,2.41%
20,O=C(c1cc2c(Cl)nc3ccccc3c2s1)N1CCOCC1,3.33%
21,Cc1cccc(C(=O)Nc2ccc(NC(=O)c3cccc(C)c3)cc2)c1,3.64%
22,COc1ccc(-c2nc3s/c(=C\c4ccc(-c5ccc(C(C)=O)cc5)o4)c(=O)n3n2)cc1OC,-2.98%
23,CCC1SC2=NC(C)=C(C(=O)OCCOC)C(c3ccccc3)N2C1=O (stereo not shown),3.87%
24,O=C(Cn1c(C(F)(F)F)nc2ccccc21)NCCN1CCOCC1,1.28%
